In the supplement of paper PMC9446081:
Out of some 39,000 compounds screened, about 220 (0.56%) showed activity. This is one part of the list.

The compounds below were run on Escherichia coli K-12 BW25113 (assay: relative growth (OD600 normalised to plate interquartile mean) (fraction); higher = less growth inhibition, active = 0.2 or less). Conditions: 50 µM; LB; incubation time: overnight (16-24 h).
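Also: static incubation at 37 °C against the wild-type strain, values averaged over two biological replicates.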

| SMILES | relative growth |
| --- | --- |
| O=C(NNC(=O)C1CCNCC1)c1cccnc1 | inactive: 0.883 |
| C[C@H](O)C#Cc1ccc2c(c1)O[C@H](CN(C)C(=O)Nc1ccccc1)[C@H](C)CN([C@H](C)CO)S2(=O)=O | inactive: 0.894 |
| Clc1ccc(C(Cn2ccnc2)OCc2ccsc2Cl)c(Cl)c1 (centres undefined) | inactive: 0.917 |
| CO[C@@H]1CN(C)C(=O)c2cc(NC(=O)NC3CCCCC3)ccc2OC[C@@H](C)N(CCc2ccccc2)C[C@H]1C | inactive: 1 |
| C[C@H](CO)N1C[C@H](C)[C@H](CN(C)Cc2ccc3c(c2)OCCN3C)OCc2cnnn2CCCC1=O | inactive: 1 |
| C[C@@H]1CN([C@H](C)CO)C(=O)c2cc(NC(=O)Nc3ccc(F)cc3)ccc2O[C@@H](C)CCCCO[C@@H]1CN(C)C(=O)Cc1ccccc1 | inactive: 1.03 |
| Nc1nc(=O)c2nc(Br)n([C@H]3O[C@H]4COP(=O)(O)O[C@@H]4[C@@H]3O)c2[nH]1 | inactive: 0.963 |
| COc1ccc(S(=O)(=O)Nc2ccc3c(c2)[C@@H]2C[C@@H](CC(=O)NCC4CC4)O[C@@H](CO)[C@@H]2O3)cc1 | inactive: 0.967 |
| CO[C@@H]1CN(C)C(=O)c2ccc(NS(C)(=O)=O)cc2OC[C@@H](C)N(C(=O)CN(C)C)C[C@@H]1C | inactive: 0.983 |
| Cc1noc(C)c1NC(=O)N(C)C[C@@H]1Oc2ccc(NC(=O)Cn3cnnn3)cc2C(=O)N([C@@H](C)CO)C[C@H]1C | inactive: 0.979 |
| CCN(CC)CCOC(=O)C(Cc1cccc2ccccc12)CC1CCCO1.O=C(O)C(=O)O (centres undefined) | inactive: 0.938 |
| Cc1noc(C)c1NC(=O)N(C)C[C@@H]1Oc2ccc(NC(=O)Nc3ccc(C(F)(F)F)cc3)cc2C(=O)N([C@H](C)CO)C[C@H]1C | inactive: 0.988 |
| C[C@H](CO)N1C[C@H](C)[C@H](CN(C)C(=O)Nc2ccc(F)cc2)Oc2c(NC(=O)CCCCCC(=O)Nc3ccccc3N)cccc2C1=O | inactive: 1 |
| C[C@H](CO)N1C[C@H](C)[C@@H](CN(C)C(=O)Nc2ccc(F)cc2)Oc2ccc(NS(=O)(=O)c3cn(C)cn3)cc2C1=O | inactive: 0.997 |
| COc1ccc(NC(=O)N(C)C[C@@H]2Oc3cc(C#CCN(C)C)ccc3S(=O)(=O)N([C@@H](C)CO)C[C@H]2C)cc1 | inactive: 0.97 |
| C[C@@H]1CN([C@@H](C)CO)C(=O)c2cc(NC(=O)CCC(F)(F)F)ccc2O[C@@H](C)CCCCO[C@@H]1CN(C)Cc1ccncc1 | inactive: 0.991 |
| COc1ccc(NC(=O)N(C)C[C@@H]2Oc3ncc(Br)cc3C(=O)N([C@@H](C)CO)C[C@@H]2C)cc1 | inactive: 1.01 |
| C[C@@H]1CN([C@@H](C)CO)C(=O)Cc2cc(NC(=O)Cn3cnnn3)ccc2O[C@@H]1CN(C)Cc1ccncc1 | inactive: 1 |
| C[C@@H]1CCCCO[C@@H](CN(C)S(=O)(=O)c2cccs2)[C@@H](C)CN([C@H](C)CO)C(=O)c2cc(NC(=O)Nc3ccc(F)cc3)ccc2O1 | inactive: 0.977 |
| Cc1noc(C)c1NC(=O)Nc1ccc2c(c1)C(=O)N([C@H](C)CO)C[C@H](C)[C@H](CN(C)Cc1ccc(Cl)c(Cl)c1)OCCCC[C@@H](C)O2 | inactive: 0.948 |

| SMILES | relative growth |
| --- | --- |
| C[C@H]1CCCCO[C@H](CN(C)Cc2ccc(Cl)c(Cl)c2)[C@@H](C)CN([C@@H](C)CO)C(=O)c2cc(NC(=O)NC3CCCCC3)ccc2O1 | inactive: 1 |
| CC(C)[Si](C#C[Si](C(C)C)(C(C)C)C(C)C)(O[C@H](C)c1cn([C@H](CO)Cc2ccccc2)nn1)C(C)C | inactive: 1.01 |
| Cc1noc(C)c1NC(=O)N(C)C[C@H]1Oc2ccc(NC(=O)Nc3cccc4ccccc34)cc2C(=O)N([C@H](C)CO)C[C@H]1C | inactive: 0.982 |
| CCCN(C)C[C@H]1OCCCC[C@H](C)Oc2ccc(NC(=O)NC3CCCCC3)cc2C(=O)N([C@@H](C)CO)C[C@H]1C | inactive: 0.996 |
| Cc1cc(C(=O)O)nn1C | inactive: 0.982 |
| C[C@@H]1CN([C@H](C)CO)C(=O)c2cc(NC(=O)Nc3ccc4c(c3)OCO4)ccc2O[C@@H](C)CCCCO[C@@H]1CN(C)C(=O)c1ccccc1 | inactive: 1.02 |
| COc1ccc(S(=O)(=O)Nc2ccc3c(c2)CC(=O)N([C@H](C)CO)C[C@@H](C)[C@@H](CN(C)C(=O)Nc2c(C)noc2C)O3)cc1 | inactive: 0.996 |
| Cc1c(-c2ccccc2)n(C[C@@H](O)CN)c2ccccc12 | inactive: 0.892 |
| Cc1nc2c(c(N3CCOCC3)n1)OCC(=O)N2 | inactive: 0.997 |
| C=CCOC(=O)N(C)C[C@@H]1Oc2ccc(NC(=O)NC(C)C)cc2C(=O)N([C@H](C)CO[Si](C)(C)C(C)(C)C)C[C@H]1C | inactive: 1.02 |
| C[C@H](CO)N1C[C@H](C)[C@H](CN(C)Cc2ccc(-c3ccccc3)cc2)Oc2c(NC(=O)Nc3ccccc3)cccc2C1=O | inactive: 0.989 |
| C[C@H](CO)N1C[C@H](C)[C@@H](CN(C)Cc2ccc(Oc3ccccc3)cc2)Oc2c(NC(=O)C3CCOCC3)cccc2C1=O | inactive: 1 |
| COC(=O)C[C@@H]1C[C@@H](C)[C@@H]2C(=O)c3c(O)c4c(c(O)c3C(=O)[C@@H]2[C@@H]1O)[C@H]1C[C@@H](O)[C@@]4(O)[C@@H](C)O1 | inactive: 1.03 |
| C=CC(C1=CC(=O)C(OC)=CC1=O)c1ccccc1 (centres undefined) | inactive: 1.09 |
| C[C@@H]1CN([C@H](C)CO)C(=O)c2cc(NC(=O)c3ccccc3)ccc2O[C@@H](C)CCCCO[C@H]1CN(C)Cc1ccc(C(=O)O)cc1 | inactive: 1 |
| COc1ccc(NC(=O)N(C)C[C@H]2Oc3c(NS(=O)(=O)c4c(C)noc4C)cccc3C(=O)N([C@H](C)CO)C[C@H]2C)cc1 | inactive: 0.994 |
| C[C@H](CO)N1C[C@H](C)[C@@H](CN(C)Cc2ccc(-c3ccccc3)cc2)Oc2c(NC(=O)Nc3ccccc3)cccc2C1=O | inactive: 1.01 |
| CO[C@@H]1CN(C)C(=O)c2cc(NS(=O)(=O)CC(F)(F)F)ccc2OC[C@@H](C)N(Cc2nccs2)C[C@@H]1C | inactive: 0.998 |
| COCCCOc1cc(CC(CC(N)C(O)CC(C(=O)NCC(C)(C)C(N)=O)C(C)C)C(C)C)ccc1OC.O=C(O)C=CC(=O)O (centres undefined) | inactive: 0.978 |
